From PubChem BioAssay AID1461 (National Center for Advancing Translational Sciences (NCATS), 2008)
The whole screen tested about 220,000 compounds, of which about 2,300 (1%) were called active. Inconclusive results, whose numbers are uncertain, are shown with a selection of clear calls. The call rests on the fitted dose curve; in most records, active means well fitted inhibition curve with a large enough effect; inconclusive means small, poorly fitted or top-dose-only effect, or effect the other way; inactive means no such curve, though single readings can be large or run the other way. No potency is given beside an inconclusive call; the fits are too rough.

Each compound was assayed against Neuropeptide S receptor (Homo sapiens) (UniProt Q6W5P4) (assay: qHTS Assay for Antagonists of the Neuropeptide S Receptor: cAMP Signal Transduction). Conditions: CHO-NPSR cells, cAMP TR-FRET, antagonist mode; activity change, negative = inhibition: at 38.3 µM (top of the series) unless noted.
Chain of UniProt Q6W5P4 (Q6W5P4 whole entry, looked up): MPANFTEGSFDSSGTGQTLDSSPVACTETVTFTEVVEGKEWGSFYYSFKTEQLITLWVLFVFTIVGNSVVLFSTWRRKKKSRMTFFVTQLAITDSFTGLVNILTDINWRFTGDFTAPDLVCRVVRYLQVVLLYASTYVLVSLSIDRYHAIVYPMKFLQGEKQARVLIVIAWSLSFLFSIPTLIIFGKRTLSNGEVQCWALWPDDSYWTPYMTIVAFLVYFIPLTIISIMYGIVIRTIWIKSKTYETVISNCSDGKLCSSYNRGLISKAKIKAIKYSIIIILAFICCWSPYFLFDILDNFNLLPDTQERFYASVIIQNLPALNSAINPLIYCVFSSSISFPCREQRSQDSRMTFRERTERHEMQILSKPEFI
Further: nearly all actives have a fitted effect of over 50% in size.
On the % scale 0 is the no-effect control and ±100 the full control effect; potency means the concentration at half of the fitted maximal effect; tags describe the fitted curve by direction and shape.

| SMILES | Potency | activity change, negative = inhibition |
| --- | --- | --- |
| CCOc1ccccc1C(=O)N1CCOCC1 | inconclusive [inhibitor, single point] |  |
| CCCc1nnc(NC(=O)C(CC)OC(=O)c2cc(C)nc3ccccc23)s1 (stereo not drawn) | inconclusive [inhibitor, partial curve] |  |
| CCN(CC)C(=O)CSc1nc2sc3c(c2c(=O)n1-c1ccc(C)cc1)CC(C)(C)SC3 | inconclusive [inhibitor, single point] |  |
| OC(c1ccccc1)(c1ccc(F)cc1)C(c1ccccc1)N1CCOCC1 (stereo not drawn) | inconclusive [inhibitor, single point] |  |
| O=C(NC1CC1)C1=C[C@H](c2csc3ccccc23)C[C@H](OCc2ccc(CO)cc2)O1 | inconclusive [inhibitor, single point] |  |
| COc1ccc(/C(O)=C2/C(=O)C(=O)N(CCN3CCOCC3)C2c2cccnc2)cc1OC (stereo not drawn) |  | inactive: 17.5% [at 46.1 µM] |
| CNc1sc(C(=O)c2ccccc2F)c(N)c1-c1nc2ccccc2s1 | active: 3.98 µM |  |
| CN(C(=O)c1ccc(=O)n(Cc2ccc(Cl)cc2)c1)c1ccccc1 |  | inactive: -12.5% |
| CCn1c(SCc2nc3ccccc3nc2C)nnc1-c1cccs1 |  | inactive: -11% [at 46.1 µM] |
| Cc1ccc(S(=O)(=O)N(CC(=O)NCCSC2CCCCC2)c2ccccc2F)cc1 | inconclusive [inhibitor, partial curve] |  |
| Cc1noc(NS(=O)(=O)c2ccc(N/C=C\C(=O)c3ccc(Br)cc3)cc2)c1C | inconclusive [activator, partial curve] |  |
| Cc1ccc(NC(=O)NC(=O)COc2ccc(Cl)cc2Cl)c(C)c1 | inconclusive [activator, full curve, poor fit] |  |
| CN(Cc1ccccc1)c1nc2c(c(=O)[nH]c(=O)n2C)n1CCCSc1ncccn1 | inconclusive [inhibitor, full curve, poor fit] |  |
| CCCn1c(NC(=O)c2ccc(F)cc2)nc2ccccc21 |  | inactive: -35% |
| Cc1ccc(C(=O)Nc2nc3ccccc3c(=O)s2)cc1 | inconclusive [inhibitor, single point] |  |
| CCOc1ccc(C2Nc3ccc4ccccc4c3-c3c2c(=O)oc2ccccc32)cc1 (stereo not drawn) | active: 10 µM |  |
| CCOC(=O)c1c(NC(=S)NCCc2ccccc2)sc2c1CC(C(C)C)OC2 (stereo not drawn) | inconclusive [inhibitor, single point] |  |
| CS(=O)(=O)c1sc(C#N)c2c1C(=O)CC(c1ccccc1)C2 (stereo not drawn) | inconclusive [activator, single point] |  |
| CCS(=O)(=O)N1CCN(c2ccc([N+](=O)[O-])c(NCc3ccccc3)c2)CC1 | inconclusive [inhibitor, single point] |  |
| CCOC(=O)CSC1=NC(=O)/C(=C\c2ccc(OC(C)=O)cc2)S1 | inconclusive [inhibitor, single point] |  |
| CCOc1ccc2c(c1)s/c(=N\S(=O)(=O)c1ccc(OC)cc1)n2C(F)F | inconclusive [inhibitor, single point] |  |
| CCCCCCCOC(=O)C[N+](C)(C)CCOC1CC2CCC1(C)C2(C)C (stereo not drawn) | inconclusive [inhibitor, single point] |  |

| SMILES | Potency | activity change, negative = inhibition |
| --- | --- | --- |
| CCN1CCN(S(=O)(=O)c2ccc(Oc3ccccc3OC)cc2)CC1 |  | inactive: 1.89% |
| O=C(c1ccccc1F)N1CCN(c2ccc([N+](=O)[O-])c(N3CCOCC3)c2)CC1 |  | inactive: -13% |
| CC1Cc2ccccc2N1S(=O)(=O)c1cnc(Cl)c(Br)c1 (stereo not drawn) | inconclusive [inhibitor, single point] |  |
| COc1ccccc1N1CCN(C(c2cc3ccc(C)cc3[nH]c2=O)c2nnnn2C2CCCC2)CC1 (stereo not drawn) | inconclusive [inhibitor, full curve, poor fit] |  |
| CC(C)(C)OC(=O)N[C@H](Cc1ccccc1)C(=O)N1CCC(C(=O)O)CC1 |  | inactive: 8.72% [at 46.1 µM] |
| CC(C)C1C(c2ccccc2)NC(c2ccccc2)CC1(O)c1ccc(F)cc1 (stereo not drawn) | inconclusive [inhibitor, single point] |  |
| Cc1ccc(CCNC(=O)C2CCCN(S(=O)(=O)c3cnc[nH]3)C2)cc1 (stereo not drawn) | inconclusive [inhibitor, single point] |  |
| COc1cccc(-c2cnc(OC(C)(C)C)nc2OC(C)(C)C)c1 | inconclusive [inhibitor, single point] |  |
| O=C(N/N=C/c1cc2c(cc1Cl)OCO2)c1ccc2c(c1)OCCO2 | inconclusive [inhibitor, single point] |  |
| COc1cc(OC)c2c(-c3ccccc3)cc(=O)oc2c1 |  | inactive: 21.7% |
| Cc1c(C(=O)NCCSCc2c(F)cccc2Cl)cnn1-c1ccc(Cl)cc1 | inconclusive [activator, single point] |  |
| CCCCCOc1ccc2oc(=O)c3c(c2c1)CCCN3C(=O)CN1CCCC(C(=O)OCC)C1 (stereo not drawn) | inconclusive [inhibitor, partial curve, poor fit] |  |
| Cc1c(C(=O)N(C)C)c2cc(Cl)ccc2n1O |  | inactive: 0.695% |
| O=c1[nH]c(-c2ccccn2)nc(C(F)(F)F)c1Br | inconclusive [activator, single point] |  |
| CCn1c2ccccc2c2cc(/C=N/n3cn[nH]c3=S)ccc21 | inconclusive [inhibitor, partial curve] |  |
| CCOc1ccc2nc(NC(=O)CSC3=NCCS3)sc2c1 |  | inactive: -16.4% [at 46.1 µM] |
| N/C(=N\OC(=O)c1cc(-c2ccccc2)nc2ccccc12)c1ccccn1 | inconclusive [activator, partial curve] |  |
| Cc1ccc(NC(=O)CC(O)(C(F)(F)F)C(F)(F)F)cc1 | inconclusive [inhibitor, single point] |  |
| C/C(=N\Nc1ncc(Cl)cc1Cl)c1ccccn1 | active: 1.26 µM |  |
| C=CCn1c(=O)c2c3c(sc2n2c(Nc4ccccc4)nnc12)CCCC3 | inconclusive [inhibitor, single point] |  |
| CCOC(=O)c1cc(-c2ccc3c(c2)OCCO3)nc2c1c(C)nn2CCC#N | inconclusive [inhibitor, partial curve] |  |
